The RNAGym collection of RNA variant scans (doi:10.1073/pnas.2313332121)
Variants at the floor of the assay are shown more often than the library holds them.

B1: TPR 5TU (parent)
chain: GGAUCUUCUCGAUCUAACAAAAAAGACAAAUCUGCCACAAAGCUUGAGAGCAUCUUCGGAUGCAGAGGCGGCAGCCUUCGGUGGCGCGAUAGCGCCAACGUUCUCAACUAUGACACGCAAAACGCGUGCUCCGUUGAAUGGAGUUUAUCAUG

Variants of: B1
Experiment: polymerase ribozyme fitness, log enrichment relative to wild type (log ratio); higher = more active; in vitro selection for triplet polymerase activity
How it was run: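 Libraries of mutants in each subunit of a heterodimeric triplet polymerase ribozyme were generated by PCR and transcribed. In triplicate, each went through one in vitro selection round: annealing with biotinylated primer, partner subunit and triplets; frozen incubation at −7 °C; gel excision of extended constructs; streptavidin-bead capture; RT-PCR. Fitness, taken from Illumina sequencing of input and output libraries, is the logarithm of a genotype's enrichment over wild-type enrichment, averaged across replicates with inverse-variance weights. The logarithm is base 2, and genotypes needed ≥10 input reads and ≥1 read per output to be kept.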

Polymerase ribozyme fitness (log ratio), ≤ -4.2:
U4G C8A A16G C36U C57A
U4G C18G G34C
U4G C32U G48C G50A U55G A64C G65A C95U U109G
U4G C36A A52G C57A G86U C116U G141C
U4G C51G U61G A97G
U4G C57A G80A U111C G141U
U4G C76A C85G U127A A142G
U4G C87G U139A
U4G G11U A26U A47C C85G G94A A110G A121U
U4G G50C A52G G80C C85U C116G
U4G G67C G83C
U4G U6G U44A C54G U134C
U4G U13A C87G
U4G U15C A30U C35U G42A G84U C85A U101A G117A
U4G U33C C51G A142U
U4G U33G G68C C95A A107G G136A
U4G U53A U55G C75U G86C U146G
C5A A16C A40U C79A C87U
C5A A17C A22U A49C G50A C57G G58A C69A U90A C93U U134C A137C
C5A A17U A49U U61A C103G C118A U139G
C5A A19C G83C C87A G92C G94A U109C G136U
C5A A20C A23U A91G G94A C114U C149U
C5A A20G A49C C85U G88C A115G A120G A150G
C5A A21G A40G C76A C79G C99G U134G A147C
C5A A21U G74U G81C
C5A A22U A23C A30C G92A
C5A A22U A24U C38U A47G G48U A52U G74U C118A
C5A A23G A47U G50U U53A G81C A120G U145C
C5A A23U A29G G84A C103G C116U G128A
C5A A24U C85A A98G C116A G128C A137C U148C
C5A A26G G59U A73C C87U C95G
C5A A28C
C5A A28U C36A A47U C54U G88U U130G
C5A A29C C38U C87A A91G
C5A A29C C69G C95U C96U A107G A138U
C5A A30U C85G
C5A A47C G59C C93G
C5A A52C G84A U139A
C5A A73G C87U C129A U134C A142U
C5A C8U A16U C76A G92C U139A
C5A C8U A17G A49U U56A C63U G71C C87A A97G G140A
C5A C10A A26U C76U G86U C96A
C5A C10G C85U C87A C95A
C5A C14A A17U U45A G50A A107C C118U
C5A C14U C69U C96U G133C A147G
C5A C14U G34U
C5A C43G C54G G59A U61G G92C A110C A120G
C5A C51U U53G C57U G59C G94U A97G C99A
C5A C54A A119C A122G G140U
C5A C54U C69G C96A U101G A110U
C5A G11C C14G U33A C43G C87G G88A G92C C114G G140C
C5A G92A U104G A138C
C5A U9G G68A A73G G133U U145A
C5A U53A C76G G86U A91G A147U
C5A U55A U135G A138U
C5A U78G C87G U135A U139A
C5G A12C A49U A91U C95G C99G G124U
C5G A12G C18G C35U G58A U77A G92C C95A G143U U144G
C5G A16C A29G G71A C99A
C5G A16C A47C A52C C87U A91U G136C
C5G A16U A21U A37C C87U C96A A113U
C5G A16U C85U G86A C118G
C5G A19C A22C C93A C116G A122C C149U
C5G A19U U33G A37C A39U A52C G83C
C5G A19U U56C A137U U139A G140U A142U
C5G A20G G34C G59A G86C G133A
C5G A23U G88U C93G C96U
C5G A23U U56C C57U C95U C105G
C5G A24G U55G C96A U146C
C5G A26U A41U G42A G70A G88U
C5G A28C A47C C85U C129A
C5G A28U A30U A40G G46A U134G U144C
C5G A29U A49C G62C A73C C87A U127G
C5G A30G G126A
C5G A41U G68A A97G A98U U145C
C5G A49U A66U C87U C93U A98U C108G
C5G A52G U56A G81A C85U U90G U135A
C5G A91C C114U
C5G C8A C10U C27G G48C C93A U134A
C5G C8A C14U A23C G94A G133U
C5G C8G A30G G42U G48C A49G U78G G80A A89G C123G U144A
C5G C10U A21G A29G A47U C54A A73U C95A C96A U102A C118U G141C
C5G C10U U44A U53A G58U G83U U102G A122U
C5G C14G A21U G62C U77G C95U
C5G C14G A30C A37G U53G C79G G94A
C5G C14G U31G A40G G58U G59C G83U C96G C103G C149G
C5G C14U U56A U61G G86A U90G U134G
C5G C27G C38A C57A G92U U102C G112C G136U U146C
C5G C35U C95A A122C U146C A150C
C5G C51U A52G C87U G92C A138U
C5G G25C G83C A97U U135C G143A
C5G G42A G88U U101G G124U U148A U151C
C5G G50C G70A C96A C105G C114G C125A
C5G G59U A60G A97G U139G G141U
C5G G86A C87U C93A C105A A113G G141U
C5G G136U U139A A142C
C5G U6G C27G G136U U144G
C5G U7C A29C U33A C54G C85G U134G
C5G U9C C14A A19C U45A A47C G48A G84C A98G A107G C116A G133U A142C
C5G U9G A28C A29C A40G U45C A91C C114A C118U U127C
C5G U31A U55G C57U C69A U134G A150G
C5G U33G C51A C87U A107U C123A U135C G143U
C5G U53A A66U G83A
C5U A19C A22G A37C G42A C69A G86A C108U C132U U146A
C5U A19U A28C C85U A110G C129A
C5U A20U C38U C57A C76A C85G U139A
C5U A21G U56A C75U G84A U90C A98C
C5U A21U G42C A60G A66C C76G C93A C118U
C5U A22U C87A A138C U148A
C5U A22U G68U G74A G86C A119C G140A
C5U A23U A41C U45G G59A G80A G94C G141U
C5U A24G G50A G94A G141C
C5U A24U A73C G84C A89C A91C U111G A142C C149U
C5U A26G G59C G62C C75G
C5U A26U U56A G59A C103G A142C U148C
C5U A28G A40U U53A C87A C108A G141C
C5U A28U C54U G84U C99U G141U G143C
C5U A37U C75G G92C A107G C114U G128C C131A C149U
C5U A37U U44A C85A A113U
C5U A37U U55G C72G A89G U135G U145C
C5U A73U G74U A89C C93G C95G
C5U C14A A17U C32U A49C U53A C93A
C5U C18U A60C C72A C93A
C5U C35A A39G C93G U127G
C5U C35U C79A
C5U C36A U82C C93U U135G
C5U C43G A49C C75U C76G U77G G94C
C5U C51A A66C C87U A142U
C5U C54A U61C G65A G88U C95G C103G A115C A119C U135G U144G
C5U G11A A60G A66G G83C A98U A107C G143C
C5U G48A G68A G83U C85G
C5U G50C G62U A66U C93U U101C A138G
C5U G70U C85G A107G U139G
C5U U7C C27U G65C C85A G86A C125U
C5U U9A A16C U90C A97C A107C
C5U U9A U15G A52C U102G C131A
C5U U9G U15A A39U A40U A107C C118G A120U G136U
C5U U13A C54A U90C C93U C132U
C5U U15G C27U A47U G48C U55A C76A G84A A122G
C5U U31C U56A C76G C85A A89U C116A C125U G140U
C5U U33A U55A C75A C96U G136U A147G A150C
C5U U33G U45G C79G C85A A97C A110C
C5U U78A C93G
U6A A12G C35A G62U G84A G86A C99G U104G U135A
U6A A12G U15C G65A C72A C85U C96U G100A A115C
U6A A12U A24U U148G
U6A A16C A24G G50C C57A G58A C85G
U6A A19C A23G A24U A73G A107C C132G G133C
U6A A19C A41U U55G G84A G117A C125A U135G U139C A142C
U6A A24C A26G A28C C93A G128A
U6A A24C G48U G50U G71A C87G
U6A A24C G48U G50U G71A G88C
U6A A24U C87A
U6A A26C G65C U82G G140U
U6A A26U C54A C93U G128A
U6A A30U G84A C93A
U6A A40C G46U A60G A91G C99G C105U G143A
U6A A52C G80C C93U G100U
U6A C8G G11U A22G A30C G50C U53A C85G A115U
U6A C10G A20C A28U A49G G84U G92A C108A
U6A C18G A41U C76G C93A C125G U139C C149G
U6A C18G C57U G88A G92C A113U G152A
U6A C18U C75U A91U C95U C108U
U6A C27G G50C C54U U55A G62A A106U
U6A C35A U56A C85U A89C C93G C99U G141A U144C
U6A C36U G59C A60C C93G C99G C116A
U6A C51A C76U C93U C103U
